23 molecules from paper PMC4336329 (PLoS ONE, 2015) can be followed below.

SMILES strings stand for the structures. Out of some 310,000 compounds screened, about 14,000 (4.5%) showed an effect of 50% or more. Effects have a minus sign here. This is one part of the list.
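Further: peak tail current of the secondary pulse compared with the same well before compound.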

The target of this assay is human ether-à-go-go-related gene (hERG) potassium channel (human, UniProt Q12809). Kind of assay: primary screen, population patch clamp on CHO cells stably expressing hERG.
human ether-à-go-go-related gene (hERG) potassium channel, sequence (Q12809 whole entry, looked up): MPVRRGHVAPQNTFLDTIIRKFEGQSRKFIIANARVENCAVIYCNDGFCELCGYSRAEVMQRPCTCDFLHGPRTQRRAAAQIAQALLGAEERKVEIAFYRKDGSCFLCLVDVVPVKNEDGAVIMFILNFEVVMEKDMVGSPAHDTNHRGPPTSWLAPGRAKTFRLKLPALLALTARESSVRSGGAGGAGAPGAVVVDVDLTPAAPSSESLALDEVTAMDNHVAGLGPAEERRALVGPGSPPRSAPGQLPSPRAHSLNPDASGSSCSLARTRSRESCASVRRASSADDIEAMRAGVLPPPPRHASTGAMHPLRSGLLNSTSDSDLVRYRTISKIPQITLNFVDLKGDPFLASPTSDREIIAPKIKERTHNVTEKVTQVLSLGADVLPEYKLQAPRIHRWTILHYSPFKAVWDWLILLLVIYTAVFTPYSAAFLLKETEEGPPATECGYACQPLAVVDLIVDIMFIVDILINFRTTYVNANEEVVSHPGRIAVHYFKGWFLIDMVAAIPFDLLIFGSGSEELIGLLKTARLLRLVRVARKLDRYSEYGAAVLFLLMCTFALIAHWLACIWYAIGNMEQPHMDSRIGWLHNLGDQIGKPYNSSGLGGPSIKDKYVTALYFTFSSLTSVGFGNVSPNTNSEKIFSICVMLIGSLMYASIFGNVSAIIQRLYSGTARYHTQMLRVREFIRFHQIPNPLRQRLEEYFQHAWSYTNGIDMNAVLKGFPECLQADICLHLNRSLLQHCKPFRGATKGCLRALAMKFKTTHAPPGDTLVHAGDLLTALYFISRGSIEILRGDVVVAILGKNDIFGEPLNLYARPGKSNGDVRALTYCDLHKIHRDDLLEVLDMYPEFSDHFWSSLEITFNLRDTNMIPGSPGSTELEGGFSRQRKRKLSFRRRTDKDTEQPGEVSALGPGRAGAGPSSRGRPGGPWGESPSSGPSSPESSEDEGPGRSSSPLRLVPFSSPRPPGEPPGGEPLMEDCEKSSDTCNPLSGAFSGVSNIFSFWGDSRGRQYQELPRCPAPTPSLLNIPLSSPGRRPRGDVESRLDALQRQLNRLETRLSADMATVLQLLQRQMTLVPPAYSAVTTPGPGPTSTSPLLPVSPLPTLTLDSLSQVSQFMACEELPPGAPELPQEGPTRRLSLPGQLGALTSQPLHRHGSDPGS
Consider `CCc1ccc(C(C)(O)C(CN2CCOCC2)c2ccccc2)cc1.Cl` (centres unmarked), for which the “hERG current change (%, negative = inhibition) at 10uM” value is -14.8%.
As for `CCc1ccccc1NC(=S)/N=C(\N)Nc1nc(C)c2cc(C)ccc2n1`, the figure is -9.49%; as for `COc1ccc(Nc2ncnc3c2cnn3-c2ccccc2)cc1OC`, 9.45%.
With `CN(C)C=O.COc1ccc(NC(=O)COC(=O)c2cc(OC)c(OC)cc2NC(=O)c2ccco2)cc1OC`, the “hERG current change (%, negative = inhibition) at 10uM” value came to 14.2%.
The figure for `Nc1nc2c(ncn2C2C[C@H](O)[C@@H](CO)O2)c(=O)[nH]1` (some centres unmarked) is 14.4%; for `CC(=O)C(Cc1cnc(Cl)s1)(Cc1cnc(Cl)s1)C(C)=O` it is -4.31%; for `O=C(NCC(=O)N(c1cccc(F)c1)C(C(=O)NC1CCCC1)c1ccncc1)c1ccco1` (centres unmarked) it is 17.8%.
Regarding `COc1cc(C)ccc1OCCOCCOc1cc(C)c(C)cc1Br`, the “hERG current change (%, negative = inhibition) at 10uM” value turned out to be 1.45%.
As for `COc1ccc(OC)c(/C=N/NC(=O)c2csc3ccccc23)c1`, the “hERG current change (%, negative = inhibition) at 10uM” value came out at 1.24%.
For `Cc1ccc(Cn2ccc(NC(=O)c3cc(CC(C)C)on3)n2)cc1`, the “hERG current change (%, negative = inhibition) at 10uM” value is recorded as -8.08%.
As to `CC(=O)Nc1ccc(NC(=O)C(C)OC(=O)c2ccc3ccccc3n2)cc1` (centres unmarked), the “hERG current change (%, negative = inhibition) at 10uM” value came out at 14.6%.
In the case of `COC(=O)c1ccccc1NC(=O)Cn1cnc2c(cnn2-c2ccccc2)c1=O`, the “hERG current change (%, negative = inhibition) at 10uM” value is recorded as 2.17%.
As for `Cc1ccc(-c2ccc(=O)n(Cc3ccc(F)cc3Cl)n2)cc1`, the “hERG current change (%, negative = inhibition) at 10uM” value came to 18.1%.
As to `CC1(C)N(O)C2CCCCC2N1O` (centres unmarked), the “hERG current change (%, negative = inhibition) at 10uM” value was determined as 4.45%.
Regarding `O=C(c1cc2cc(Br)cc(Br)c2oc1=O)N1CCCC1`, the “hERG current change (%, negative = inhibition) at 10uM” value is given as -9.98%.
Turning to `Cc1cccc(COCC(Cc2ccccc2)N2CCN(C(=O)c3cc(Cl)cc(Cl)c3)CCC2=O)c1` (centres unmarked), the “hERG current change (%, negative = inhibition) at 10uM” value is -29.4%.
Turning to `Cc1ccc(S(=O)(=O)n2nc(-c3cccnc3)nc2N)cc1`, the “hERG current change (%, negative = inhibition) at 10uM” value was found to be 13.3%.
As for `NS(=O)(=O)c1ccc(NC(=O)COC(=O)c2cn(-c3ccccc3)nc2-c2ccc(F)cc2)cc1`, the “hERG current change (%, negative = inhibition) at 10uM” value is on record as 5.85%.
In the case of `CCC(C)(C)NC(=O)CN(Cc1cccs1)C(=O)C(=O)Nc1ccc2c(c1)OCCO2`, the “hERG current change (%, negative = inhibition) at 10uM” value was -12.9%.
For `CC1(C)Cc2c(c(N3CCOCC3)nc3sc(C(=O)Nc4ccccc4)c(N)c23)CO1`, the “hERG current change (%, negative = inhibition) at 10uM” value is given as -0.852%.
Regarding `O=c1cc(CN2CCN(S(=O)(=O)c3ccc4ccccc4c3)CC2)nc2sccn12`, the “hERG current change (%, negative = inhibition) at 10uM” value is given as -25.2%.
On to `c1ccc2c(C3CCO3)cccc2c1` (centres unmarked), for which the “hERG current change (%, negative = inhibition) at 10uM” value was found to be 13.3%.
Turning to `CCN(CC(=O)Nc1c(F)cccc1F)C(=O)CCC(=O)c1ccc(C)cc1`, the “hERG current change (%, negative = inhibition) at 10uM” value is -9.14%.
